Results on 16 compounds are retold here after PubChem BioAssay AID1745853 (National Center for Advancing Translational Sciences (NCATS), 2022).

This is one part of the list. These are further read-outs of the screen, such as a control signal, another cell line or another target. No call is given for them.

Holding throughout (experiment): Primary Screen for Target Class Profiling of Small Molecule Inhibitors of Methyltransferases
In assay [1] the target is Glycine N-methyltransferase (Homo sapiens) (UniProt Q14749). The settings on record: purified enzyme, MTase-Glo SAH luminescence; measured here: GNMT inhibition; at 40 µM; stronger effect = lower value. The gist of the method: (§1)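 Each enzyme was assayed with SAM and its substrate. SAH formation detected by MTase-Glo luminescence; single-point 40 uM screen[…].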
Assay [2] concerns the target Guanidinoacetate N-methyltransferase (Homo sapiens) (UniProt Q14353). The settings on record: purified enzyme, MTase-Glo SAH luminescence; measured here: GAMT inhibition; at 40 µM; stronger effect = lower value. The gist of the method: as §1
The target in assay [3] is Histamine N-methyltransferase (Homo sapiens) (UniProt P50135). The settings on record: purified enzyme, MTase-Glo SAH luminescence; measured here: HNMT inhibition; at 40 µM; stronger effect = lower value. An outline of the steps: as §1
For assay [4], the target named is Nicotinamide N-methyltransferase (Homo sapiens) (UniProt P40261). The settings on record: purified enzyme, MTase-Glo SAH luminescence; measured here: NNMT inhibition; at 40 µM; stronger effect = lower value. The gist of the method: as §1
For assay [5], the target named is Phenylethanolamine N-methyltransferase (Homo sapiens) (UniProt P11086). Particulars: purified enzyme, MTase-Glo SAH luminescence; measured here: PNMT inhibition; at 40 µM; stronger effect = lower value. An outline of the steps: as §1
% is scaled to controls: 0 for no effect and ±100 for the full control effect.

On to `CC1(C(=O)NC2CCCCC2)Cn2nc(-c3cccs3)cc2C(=O)N1Cc1ccc(Cl)cc1` (configuration not stated), for which the activity change, negative = inhibition in assay [1] was determined as 2.08%; in assay [2], 1.01%; in assay [3], 7.17%; in assay [4] it was 11.9%; in assay [5], 2.55%.
Turning to `CC1(C(=O)NC2CCCCC2)Cn2c(ccc2-c2ccco2)C(=O)N1Cc1ccc(F)cc1` (configuration not stated), the activity change, negative = inhibition is -2.76% in assay [1]; 4.4% in assay [2]; 2.89% in assay [3]; -3.21% in assay [4]; -3.38% in assay [5].
As for `Cc1ncoc1C(=O)N1CCC2(CC1)CC(N(Cc1ccccc1)C1CC1)CCO2` (configuration not stated), the activity change, negative = inhibition in assay [1] was -0.926%; in assay [2], -1.68%; in assay [3], -0.443%; in assay [4], -3.6%; in assay [5], 1.26%.
On the same counts, the results for `Cc1ccc(CN2CCCc3nc(C)nc(-c4ccc(O)cc4)c3C2)cc1` are -10.7%, -9.66%, -9.6%, -17.7% and -15.1%.
As for `CN(CC(=O)NCCc1ccccc1)S(=O)(=O)c1ccc2[nH]c3c(c2c1)CCCC3`, the activity change, negative = inhibition was 3% in assay [1]; 1.82% in assay [2]; -1.08% in assay [3]; -1.44% in assay [4]; 3.95% in assay [5].
Take `COc1ccc(NC(=O)CCc2ccnc(N3CCCC3)c2)c(OC)c1`: the activity change, negative = inhibition in assay [1] was -5.27%; in assay [2] it was -3.22%; in assay [3], -79%; in assay [4] it was -7.22%; in assay [5], -1.91%.
On the same counts, the results for `O=C(NC[C@H]1Cn2ccnc2CO1)C1CCCC1` are -1.44%, -3.52%, -0.667%, -0.781% and -4.36%.
On the same counts, the results for `CCOCCCNC(=O)C1c2c(n(C)c3ccccc23)SCC(=O)N1c1ccc(Cl)cc1` (configuration not stated) are 5.14%, 0%, -0.52%, 3.97% and 6.51%.
For `COC(=O)C(Cc1ccc(OCCn2c(=O)sc3cc(C(=O)c4ccccc4)ccc32)cc1)C(=O)OC`, the activity change, negative = inhibition in assay [1] is 3.75%; in assay [2], -15.2%; in assay [3] it was 8.55%; in assay [4], -20.7%; in assay [5] it was -9.89%.
On to `O=C1CCC[C@@H]2[C@H]3CCC[N+]4([O-])CCC[C@@H](CN12)[C@@H]34` (some centres not stated), for which the activity change, negative = inhibition in assay [1] was determined as 1.08%; in assay [3], 8.96%.
`O=C([C@@H]1C[C@@H]2C=C[C@H]1C2)N1CCc2c(nc(-c3cccnc3)[nH]c2=O)C1`: the activity change, negative = inhibition in assay [1] is -2.38%; in assay [2], 1.68%; in assay [3] it was 1.22%; in assay [4], -1.64%; in assay [5], -2.7%.
In the case of `Cc1noc(C)c1-c1nccc2c(=O)cc(-c3ccccn3)oc12`, the activity change, negative = inhibition is -1.81% in assay [1]; 2.13% in assay [2]; -1.46% in assay [3]; -28.4% in assay [4]; -11.2% in assay [5].
On the same counts, the results for `Cc1ccc(C)c(NC(=O)N2CCn3cccc3C2C(C)C)c1` (configuration not stated) are 11.5%, 1.32%, 5.8%, 8.28% and 8.03%.
Take `COc1ccc(S(N)(=O)=O)cc1C(=O)N1CCC2(CN(C)C(=O)O2)C1` (configuration not stated): the activity change, negative = inhibition in assay [1] was -3.98%; in assay [2], -5.76%; in assay [3], -4.15%; in assay [4], -9.89%; in assay [5] it was 2%.
As for `CC(=O)OC[C@]12[C@H](OC(C)=O)C(=O)[C@@H]3[C@@H](OC(C)=O)[C@@]14O[C@@]3(C)COC(=O)c1cccnc1[C@@H](C)[C@H](C)C(=O)O[C@@H]([C@H](OC(C)=O)[C@@H]2OC(C)=O)[C@]4(C)O`, the activity change, negative = inhibition is 0% in assay [1]; 5.48% in assay [2]; 10.6% in assay [3]; -8.21% in assay [4]; 0.203% in assay [5].
Consider `COc1ccc(OC)c(CCNC(=O)Cn2ccc3cc(S(=O)(=O)N4CCCC4)ccc32)c1`, for which the activity change, negative = inhibition in assay [1] turned out to be 5.81%; in assay [2], 0%; in assay [3] it was 7.71%; in assay [4], 2.54%; in assay [5], 6.5%.
